Experimental data reported in patent publication US20140162952A1 (ONCOTHERAPY SCIENCE, published 2014).

Experiments:
[1] = target: T1, Flag-full-length ERAP1 (human, UniProt Q5TH69); assay: co-immunoprecipitation from transfected HEK293T cells, IP anti-PP1α, blot anti-FLAG
T1 construct: Expressed by transfection in COS-7 or HEK293T cells and used as cell lysate; also called Flag-ERAP1; FLAG-ERAP1; not shown: Flag tag

[2] = target: T2, FLAG-ERAP1-ΔPP1α (ERAP1 construct in which 1228-1232 aa (KAVSF) were deleted) (human, UniProt Q5TH69); assay: as above
T2 construct: expressed in HEK293T cells; also called ERAP1 construct (ΔPP1α); not shown: FLAG tag

binding result [1]: binds
binding result [2]: no binding (tested: 2.0 µg DNA)
B1: inherent PP1α (protein phosphatase 1α) (enzyme)
chain: not shown
notes: Endogenous in MCF-7 and HEK293T cells; also called PP1α polypeptide
